{
  "source": "PubChem BioAssay AID1745845",
  "about": "(National Center for Advancing Translational Sciences (NCATS), 2022)",
  "note": "Among all 360,000 compounds or so, about 2,600 (0.72%) were called active. This list was built around the results that the source calls inconclusive (neither active nor inactive); the mix of calls is not that of the screen. Calls follow the shape of the dose curve; as a rule, active = well fitted inhibition curve with a large enough effect; inconclusive = small, poorly fitted or top-dose-only effect; inactive = no such curve, though single readings can be large or run the other way. Potencies of inconclusive entries are doubtful fits and often do not repeat. % is scaled to controls: 0 for no effect and ±100 for the full control effect; potency is read from the fitted curve at half-maximal effect; tags tell the direction and shape of the fitted curve.",
  "data": [
    {"test": "Primary qHTS for Inhibitors of ATXN expression; also: nearly all actives have a fitted effect of over 55% in size", "settings": "HEK-293 ATXN2-luciferase reporter, luminescence, 24 h; activity change, negative = inhibition: at 57 µM (top of the series)", "how_it_was_run": "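ATXN2-luciferase reporter cells (luciferase flanked by upstream and downstream ATXN2 gene portions) were treated 24 h at 37 °C with compounds at up to 57 uM. SteadyGlo luminescence gave expression; GF-AFC fluorescence gave viability.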", "values": [
      {"smiles": "COc1ccc2cc3cc(C(=O)Nc4cc(OC)c(OC)c(OC)c4)oc3nc2c1", "Potency": "inconclusive: 3.16 µM [inhibitor, partial curve, poor fit]"},
      {"smiles": "COc1ccc(-n2c(-c3ccccc3)cc3c2CCCC3=O)cc1", "activity change, negative = inhibition": "inactive: -3.23%"},
      {"smiles": "CCN(CC)CCNC(=O)c1[nH]c2ccccc2c1Sc1ccc(Cl)cc1", "Potency": "inconclusive: 28.2 µM [inhibitor, single point]"},
      {"smiles": "O=C(Nc1ccn(Cc2ccccc2F)n1)c1ccc(COc2ccc(Br)cc2)cc1", "Potency": "inconclusive: 2.82 µM [inhibitor, partial curve, poor fit]"},
      {"smiles": "O=C(O)CCSc1ncnc2sc(-c3ccccc3)cc12", "Potency": "active: 2 µM"},
      {"smiles": "CCC(C)(C)NC(=O)C(c1ccc(F)cc1)N(Cc1ccco1)C(=O)c1cnccn1", "note": "(stereo not drawn)", "activity change, negative = inhibition": "inactive: 5.46%"},
      {"smiles": "CCCCNc1c(-c2ccc(SC(C)CC)cc2)nc2ccccn12", "note": "(stereo not drawn)", "Potency": "inconclusive: 39.8 µM [inhibitor, single point]"},
      {"smiles": "O=C1COc2ccc(C(=O)COC(=O)c3sc4ccccc4c3Cl)cc2N1", "Potency": "inconclusive: 22.4 µM [inhibitor, partial curve, poor fit]"},
      {"smiles": "NC(Cc1ccc(Cl)cc1)c1csc(NC(=O)Nc2ccccc2-c2ccccc2)n1", "note": "(stereo not drawn)", "Potency": "inconclusive: 35.5 µM [inhibitor, single point]"},
      {"smiles": "CCc1cnn2c(NCc3ccc[n+]([O-])c3)cc(N3CCCC[C@@H]3CCO)nc12", "Potency": "active: 0.0137 µM"},
      {"smiles": "CCCC[C@@H]1CNC(=S)N1CCc1cccc(F)c1", "Potency": "inconclusive: 39.8 µM [inhibitor, single point]"},
      {"smiles": "O=C(NCCc1ccccc1)c1ccc(CSc2nc3ccncc3n2Cc2ccccc2F)cc1", "activity change, negative = inhibition": "inactive: -18.3%"},
      {"smiles": "O=C1c2ccccc2NC(c2ccc(-c3ccc(Br)cc3)o2)N1O", "note": "(stereo not drawn)", "Potency": "inconclusive: 28.2 µM [inhibitor, single point]"},
      {"smiles": "O=c1[nH]ncc2c3ccccc3n(Cc3ccccc3F)c12", "activity change, negative = inhibition": "inactive: -14%"},
      {"smiles": "C=CCNc1oc(-c2cccc(F)c2)nc1C#N", "Potency": "inconclusive: 35.5 µM [inhibitor, single point]"},
      {"smiles": "CCN(C(=O)c1nn(-c2ccc(C)cc2)c(=O)c2c1c1ccccc1n2C)c1ccc(F)cc1", "activity change, negative = inhibition": "inactive: -11.6%"},
      {"smiles": "Cc1ccc(SCCC(=O)OCC(=O)Nc2ccc(C(N)=O)cc2)cc1", "activity change, negative = inhibition": "inactive: -5.29%"},
      {"smiles": "CCOC(=O)c1coc(C(=O)OCC)c1C(=O)OCC", "activity change, negative = inhibition": "inactive: 3.62%"},
      {"smiles": "Cc1cc(OCc2cc(C(=O)N3CCN(C)C(=O)[C@@H]3C)no2)cc(C)c1Cl", "Potency": "inconclusive: 20 µM [inhibitor, single point]"},
      {"smiles": "O=C1CC(c2ccco2)CC2=C1C1c3ccccc3C(=O)N1c1ccccc1N2", "note": "(stereo not drawn)", "activity change, negative = inhibition": "inactive: 7.03%"},
      {"smiles": "COc1ccccc1NS(=O)(=O)c1cc([N+](=O)[O-])ccc1N/N=C/c1c[nH]c2ccccc12", "Potency": "inconclusive: 31.6 µM [inhibitor, single point]"},
      {"smiles": "COc1ccc(-c2nnn(CC(=O)N3CCN(c4ccccc4OC)CC3)n2)cc1OC", "activity change, negative = inhibition": "inactive: -0.151%"},
      {"smiles": "COc1ccccc1NC(=O)Cn1nc(-c2ccncc2)nc1SCC(=O)NC1CCCC1", "activity change, negative = inhibition": "inactive: -28.3%"},
      {"smiles": "CCOC(=O)c1cnc(-c2ccccc2)nc1N1CCOCC1", "activity change, negative = inhibition": "inactive: 4.97%"},
      {"smiles": "CC(C)C[C@H]1CN([C@@H](CC(C)C)CN2CCCC2CN2C(=S)NC[C@@H]2Cc2ccccc2)C(=S)N1CCc1ccccc1", "note": "(stereo partly drawn)", "Potency": "inconclusive: 6.31 µM [inhibitor, full curve]"},
      {"smiles": "Cc1ccc(S(=O)(=O)N2C[C@H]3N(C(=O)OC(C)C)N(C(=O)OC(C)C)C[C@H](OC(=O)Nc4cccs4)[C@@]3(O)C2)cc1", "activity change, negative = inhibition": "inactive: -29.3%"},
      {"smiles": "COC(=O)/C(=C\\c1ccc([N+](=O)[O-])o1)NC(=O)c1ccccc1", "Potency": "inconclusive: 31.6 µM [inhibitor, partial curve, poor fit]"},
      {"smiles": "O=c1cc(-c2ccc(OCc3ccccc3)cc2)oc2cc(OCc3ccccc3)cc(OCc3ccccc3)c12", "activity change, negative = inhibition": "inactive: 20.2%"},
      {"smiles": "Cc1nc2ccn(Cc3ccccc3)c(=O)c2cc1C(=O)NCc1ccccc1F", "Potency": "inconclusive: 0.178 µM [inhibitor, full curve, poor fit]"},
      {"smiles": "CCN(CC)c1ccc(/C=N/NC(=O)c2c(Cl)cnn2C)c(O)c1", "Potency": "inconclusive: 2.51 µM [inhibitor, full curve, poor fit]"},
      {"smiles": "FC(F)(F)c1cnc(Sc2nc3nccc(-c4ccc(Cl)cc4)n3n2)c(Cl)c1", "Potency": "inconclusive: 28.2 µM [inhibitor, single point]"},
      {"smiles": "COCOc1cc(O)c(C(=O)/C=C/c2ccccc2)c(OCOC)c1", "activity change, negative = inhibition": "inactive: -37.2%"},
      {"smiles": "O=C(CCc1ccc(Oc2cc([N+](=O)[O-])cc([N+](=O)[O-])c2)cc1)Nc1cccc(Cl)c1", "Potency": "inconclusive: 20 µM [inhibitor, single point]"},
      {"smiles": "COc1ccc(-c2csc(C(O)(c3ccccc3)C(F)(F)F)n2)cc1", "note": "(stereo not drawn)", "Potency": "inconclusive: 39.8 µM [inhibitor, single point]"},
      {"smiles": "Cc1cc(SC(C)C(=O)NCC(=O)Nc2ccc(F)c(F)c2F)nc2ccccc12", "note": "(stereo not drawn)", "Potency": "inconclusive: 28.2 µM [inhibitor, partial curve, poor fit]"},
      {"smiles": "COc1ccc(N(C(=O)COc2ccccc2OC)S(=O)(=O)c2ccc(Cl)cc2)cc1", "activity change, negative = inhibition": "inactive: 0%"},
      {"smiles": "CC(C)=CCc1c2c(c3occ(-c4ccc(O)c(O)c4)c(=O)c3c1O)C=CC(C)(C)O2", "Potency": "active: 22.4 µM"},
      {"smiles": "CC(C)c1ccccc1OCC(O)CN(CC(O)COc1cccc2ccccc12)C(C)C", "note": "(stereo not drawn)", "Potency": "inconclusive: 20 µM [inhibitor, partial curve, poor fit]"},
      {"smiles": "COc1ccccc1C(=O)Nc1ccc(S(=O)(=O)N2CCCCC2c2cccnc2)cc1", "note": "(stereo not drawn)", "Potency": "inconclusive: 39.8 µM [inhibitor, partial curve, poor fit]"},
      {"smiles": "CCN(CC)c1ccc(S(=O)(=O)N2CCOCC2)cc1NC(=O)CN1CCc2ccccc2C1", "Potency": "inconclusive: 37.7 µM [inhibitor, single point]"},
      {"smiles": "CCOC(=O)C1=C(C)NC(SC)=NC1c1ccc(OC)cc1", "note": "(stereo not drawn)", "activity change, negative = inhibition": "inactive: 4.69%"},
      {"smiles": "Clc1ccc(CNc2cc(-c3ccccc3)nc3nncn23)cc1", "Potency": "inconclusive: 12.6 µM [inhibitor, partial curve, poor fit]"},
      {"smiles": "COc1ccc(S(=O)(=O)Nc2cccc(-c3ccc(N4CCCC4)nn3)c2)cc1OC", "Potency": "inconclusive: 25.1 µM [inhibitor, single point]"}
    ]}
  ]
}
